Results on one molecule are retold here after US20130310317A1 (Bristol-Myers Squibb, published 2013).

For the test, the target named is human IGF-IR on cells (human, UniProt P08069 31-1367). Kind of test: cell-based or functional assay.

B1: 385A08-Fc (Fc fusion)
chain: GVSDVPRDLEVVAATPTSLLISWSARLKVARYYRITYGETGGNSPVQEFTVPKNVYTATISGLKPGVDYTITVYAVTRFRDYQPISINYRTEIDKPSQDPGS[human IgG1 Fc with changes not written out]
For B1, the “IC50, proliferation of H929 cells (3H-thymidine)” value stood at 0.15 nM; the “IC50, proliferation of Rh41 cells (3H-thymidine), Trial 1” value amounted to 48.6 nM; the “IC50, proliferation of Rh41 cells (3H-thymidine), Trial 2” value is 39.4 nM; the “IC50, proliferation of Rh41 cells (3H-thymidine), average of trials” value came out at 44 nM.
